# Source: the supplement of paper PMC8728848
# Some of the results follow.
# B1: Clec2 (Mus musculus), Q9JL99 (protein)
# chain: MQDEDGYITLNIKPRKQALSSAEPASSWWRVMALVLLISSMGLVVGLVALGIMSVTQQKYLLAEKENLSATLQQLAKKFCQELIRQSEIKTKSTFEHKCSPCATKWRYHGDSCYGFFRRNLTWEESKQYCTEQNATLVKTASQSTLDYIAERITSVRWIGLSRQNSKKDWMWEDSSVLRKNGINLSGNTEENMNCAYLHNGKIHPASCKERHYLICERNAGMTRVDQLL
# Assays:
# Assay in all cases: glycan array binding signal (z-score within array); higher = stronger binding
# Settings in all cases: glycan notation: IUPAC condensed, linker removed
# [1] = biological target: Neu5Ac(a2-3)Gal(b1-4)GlcNAc(b1-3)[Neu5Ac(a2-3)Gal(b1-4)GlcNAc(b1-6)]GalNAc
# Method in brief: (§1)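 Glycan array data were curated from 3228 arrays in the Consortium for Functional Glycomics database and kept only where the protein sequence was available. Glycan names were converted to IUPAC-condensed notation, and columns mapping to the same glycan were averaged. The binding signal is a within-array Z-score, averaged across arrays of the same protein sequence at different concentrations or buffers and across linkers. Negative Z-scores can be read as non-binding.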
# [2] = biological target: Neu5Ac(a2-3)Gal(b1-4)GlcNAc(b1-6)GalNAc
# Method in brief: as §1
# [3] = biological target: Neu5Ac(a2-3)Gal(b1-4)GlcNAc(b1-6)[Gal(b1-3)]GalNAc
# Method in brief: as §1
# [4] = biological target: Neu5Ac(a2-3)Gal(b1-4)GlcNAc(b1-6)[Neu5Ac(a2-3)Gal(b1-3)]GalNAc
# Method in brief: as §1
# [5] = biological target: Neu5Ac(a2-3)Gal(b1-4)GlcNAc6S
# Method in brief: as §1
# [6] = biological target: Neu5Ac(a2-3)Gal(b1-4)[Fuc(a1-3)]GlcNAc
# Method in brief: as §1
# [7] = biological target: Neu5Ac(a2-3)Gal(b1-4)[Fuc(a1-3)]GlcNAc(b1-2)Man
# Method in brief: as §1
# [8] = biological target: Neu5Ac(a2-3)Gal(b1-4)[Fuc(a1-3)]GlcNAc(b1-3)Gal
# Method in brief: as §1
# [9] = biological target: Neu5Ac(a2-3)Gal(b1-4)[Fuc(a1-3)]GlcNAc(b1-3)Gal(b1-4)GlcNAc
# Method in brief: as §1
# [10] = biological target: Neu5Ac(a2-3)Gal(b1-4)[Fuc(a1-3)]GlcNAc(b1-3)Gal(b1-4)[Fuc(a1-3)]GlcNAc(b1-3)Gal(b1-4)[Fuc(a1-3)]GlcNAc
# Method in brief: as §1
# [11] = biological target: Neu5Ac(a2-3)Gal(b1-4)[Fuc(a1-3)]GlcNAc(b1-3)GalNAc
# Method in brief: as §1
# [12] = biological target: Neu5Ac(a2-3)Gal(b1-4)[Fuc(a1-3)]GlcNAc(b1-6)[Gal(b1-3)]GalNAc
# Method in brief: as §1
# [13] = biological target: Neu5Ac(a2-3)Gal(b1-4)[Fuc(a1-3)]GlcNAc(b1-6)[Neu5Ac(a2-3)Gal(b1-3)]GalNAc
# Method in brief: as §1
# [14] = biological target: Neu5Ac(a2-3)Gal(b1-4)[Fuc(a1-3)]GlcNAc6S
# Method in brief: as §1
# [15] = biological target: Neu5Ac(a2-3)Gal6S(b1-4)GlcNAc
# Method in brief: as §1
# [16] = biological target: Neu5Ac(a2-3)Gal6S(b1-4)[Fuc(a1-3)]GlcNAc
# Method in brief: as §1
# Neu5Ac(a2-3)GalNAc = biological target: Neu5Ac(a2-3)GalNAc
# Method in brief: as §1
# [17] = biological target: Neu5Ac(a2-3)GalNAc(b1-4)GlcNAc
# Method in brief: as §1
# [18] = biological target: Neu5Ac(a2-3)[GalNAc(b1-4)]Gal(b1-4)Glc
# Method in brief: as §1
# [19] = biological target: Neu5Ac(a2-3)[GalNAc(b1-4)]Gal(b1-4)GlcNAc
# Method in brief: as §1
# [20] = biological target: Neu5Ac(a2-3)[GalNAc(b1-4)]Gal(b1-4)GlcNAc(b1-3)GalNAc
# Method in brief: as §1
# [21] = biological target: Neu5Ac(a2-3)[Neu5Ac(a2-6)]GalNAc
# Method in brief: as §1
binder,measurement,setting,value
B1,glycan array binding signal (z-score),[1],-0.342
same,glycan array binding signal (z-score),[2],-0.173
same,glycan array binding signal (z-score),[3],0.119
same,glycan array binding signal (z-score),[4],-0.594
same,glycan array binding signal (z-score),[5],2.54
same,glycan array binding signal (z-score),[6],-0.527
same,glycan array binding signal (z-score),[7],-0.248
same,glycan array binding signal (z-score),[8],-0.649
same,glycan array binding signal (z-score),[9],-0.224
same,glycan array binding signal (z-score),[10],-0.521
same,glycan array binding signal (z-score),[11],0.837
same,glycan array binding signal (z-score),[12],-0.571
same,glycan array binding signal (z-score),[13],0.101
same,glycan array binding signal (z-score),[14],1.83
same,glycan array binding signal (z-score),[15],0.844
same,glycan array binding signal (z-score),[16],-0.33
same,glycan array binding signal (z-score),Neu5Ac(a2-3)GalNAc,-0.084
same,glycan array binding signal (z-score),[17],-0.365
same,glycan array binding signal (z-score),[18],-0.342
same,glycan array binding signal (z-score),[19],-0.748
same,glycan array binding signal (z-score),[20],-0.352
same,glycan array binding signal (z-score),[21],2.23
